{"source": "PubChem BioAssay AID2101", "about": "(National Center for Advancing Translational Sciences (NCATS), 2009)", "note": "About 300 (0.091%) of roughly 330,000 compounds were called active. The shares of active, inactive and inconclusive entries below differ from those in the screen. Calls follow the shape of the dose curve; as a rule, active = well fitted inhibition curve with a large enough effect; inconclusive = small, poorly fitted or top-dose-only effect, or effect the other way, or another doubt; inactive = no such curve, though single readings can be large or run the other way. No potency is given beside an inconclusive call; the fits are too rough. Potency is read from the fitted curve at half-maximal effect.", "data": [{"biological_target": "Lysosomal acid glucosylceramidase (Homo sapiens) (UniProt P04062)", "test": "qHTS Assay for Inhibitors and Activators of N370S glucocerebrosidase as a Potential Chaperone Treatment of Gaucher Disease;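 as to activity change, negative = inhibition: 0% = full enzyme activity and -100% = no enzyme basal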", "conditions": "N370S GC spleen homogenate, 4MU-glucoside fluorescence; activity change, negative = inhibition: at 59.4 µM (top of the series) unless noted", "values": [{"molecule": "N=c1n(CCCOc2ccc(F)cc2)c2ccccc2n1CC(N)=O", "Potency": "inactive"}, {"molecule": "c1ccc(NC2=Nc3ccccc3CS2)cc1", "Potency": "inactive"}, {"molecule": "Cc1cc(NC2CCCCC2)nc(NCc2ccccc2)n1", "Potency": "active: 17.8 µM"}, {"molecule": "Cc1nc(NNC(=O)c2ccc(Cl)cc2Cl)cc(-c2ccccc2)n1", "Potency": "inconclusive [inhibitor, partial curve]"}, {"molecule": "CCOc1ccc(NS(=O)(=O)c2ccc(C(=O)N(C)Cc3cccc(OC)c3OC)cc2)cc1", "Potency": "inconclusive [inhibitor, partial curve, poor fit]"}, {"molecule": "CC(CCc1ccccc1)NC(=O)COC(=O)c1cccc2ccccc12", "note": "(centres undefined)", "Potency": "inconclusive [activator, partial curve, poor fit]"}, {"molecule": "OC(CNC1CCCCC1)COCCOc1ccc(Br)cc1", "note": "(centres undefined)", "Potency": "inconclusive [inhibitor, single point]"}, {"molecule": "O=C(/C=C\\Nc1cccc(F)c1)c1cccs1", "Potency": "inactive"}, {"molecule": "CN(C(=O)c1cc2c(=O)n3ccccc3nc2n1C)C1CCCCC1", "Potency": "inconclusive [activator, partial curve]"}, {"molecule": "CCC(C)NS(=O)(=O)c1ccc(S(=O)(=O)Nc2cc3c(cc2C(C)=O)OCO3)cc1", "note": "(centres undefined)", "Potency": "inconclusive [activator, partial curve, poor fit]"}, {"molecule": "CC1CCN(CCCNC(=O)c2ccc(CS(=O)(=O)Cc3ccccc3F)o2)CC1", "activity change, negative = inhibition": "inconclusive: 33.6% [activator]"}, {"molecule": "NC(=O)c1ccc2nc(NC(=O)c3ccc(N)cc3)sc2c1", "Potency": "inactive"}, {"molecule": "Cc1nn2c(N3CCN(CCO)CC3)c3c(nc2c1-c1ccccc1)CCCC3", "Potency": "inconclusive [inhibitor, partial curve]"}, {"molecule": "Cn1c(=O)c(/C=C/c2ccccc2)nc2ccccc21", "Potency": "inactive"}, {"molecule": "c1ccc(-c2nc(-n3nc4ccccc4n3)nc3ccccc23)cc1", "Potency": "inconclusive [activator, partial curve]"}, {"molecule": "Cc1nn(-c2ccccc2)nc1C(=O)Nc1nnc(C(F)(F)F)s1", "Potency": "inconclusive [activator, partial curve]"}, {"molecule": "Cc1ccc2nc3ccc(N4CCCCCCC4)nn3c(=O)c2c1", "Potency": "inconclusive [activator, partial curve]"}, {"molecule": "CCOC(=O)c1c(SC)n(-c2ccccc2)c(=S)n(-c2ccccc2)c1=O", "Potency": "inactive"}, {"molecule": "Cc1cc2cc3c(cc2nc1SCC(=O)OC(C)C)OCCO3", "Potency": "inconclusive [activator, partial curve]"}, {"molecule": "CCOc1ccc(C(=O)Nc2ccc(Cc3ccncc3)cc2)cc1Br", "Potency": "inconclusive [activator, partial curve]"}, {"molecule": "Cc1c(Cl)cccc1Nc1nc(N)nc(CN2CCc3ccccc3C2)n1", "Potency": "inconclusive [inhibitor, single point]"}, {"molecule": "CCS(=O)(=O)c1ccc(O)c(NC(=O)/C=C/c2ccccc2)c1", "Potency": "inactive"}, {"molecule": "Cc1ccc(-c2ccc(CCC(=O)O)n2-c2cccc(C(=O)O)c2)cc1", "Potency": "inactive"}, {"molecule": "COc1ncc2nc(-c3cccs3)c(=O)n(CCC#N)c2n1", "Potency": "inconclusive [activator, partial curve]"}, {"molecule": "O=C(Nc1cccc(C(=O)O)c1)/C(=C\\c1ccco1)NC(=O)c1ccc(Br)o1", "Potency": "inconclusive [activator, single point]"}, {"molecule": "CCCn1c(COc2ccccc2)nc2ccccc21", "Potency": "inconclusive [activator, full curve, poor fit]"}, {"molecule": "CCC1=NN2C(=N)/C(=C\\c3cccn3-c3ccc(C)c(C)c3)C(=O)N=C2S1", "Potency": "inconclusive [activator, full curve, poor fit]"}, {"molecule": "Cc1cc(C)n(-c2nc(SCC(=O)N3CCCC3)c3c4c(sc3n2)CCCC4)n1", "Potency": "inconclusive [activator, partial curve]"}, {"molecule": "Cc1ccc(O)c(C2=Nc3ccccc3N=C(c3ccco3)C2)c1", "Potency": "inactive"}, {"molecule": "C=C(C#N)C(=O)OCC", "Potency": "inactive"}, {"molecule": "C=CCSc1nc2sc(C)c(C)c2c(=O)n1N", "Potency": "inconclusive [activator, partial curve]"}, {"molecule": "CC1=CC=CC2=NC(=O)CC(C)(C(=O)N(CC(=O)NC3CCCC3)Cc3ccc(Cl)cc3)N12", "note": "(centres undefined)", "Potency": "inconclusive [activator, partial curve]"}, {"molecule": "NC1=NC(=O)/C(=C/c2ccccc2OS(=O)(=O)c2ccc3ccccc3c2)S1", "Potency": "inconclusive [inhibitor, single point]"}, {"molecule": "Cc1ccc(C(C)C)c(OCCCN(C)Cc2ccccc2)c1", "Potency": "inconclusive [activator, partial curve, poor fit]"}, {"molecule": "O=C(COC(=O)[C@@H]1CCCN1S(=O)(=O)c1ccc(Cl)cc1)NC12CC3CC(CC(C3)C1)C2", "Potency": "inconclusive [activator, partial curve]"}, {"molecule": "CC(C)(C)c1ccc(CN2C3=NCCCN3c3ccccc32)cc1", "Potency": "inconclusive [inhibitor, single point]"}, {"molecule": "COc1ccc(/C=C2\\SC(=S)N(C(C(=O)O)c3ccccc3)C2=O)c(OC)c1", "note": "(centres undefined)", "Potency": "inconclusive [inhibitor, single point]"}, {"molecule": "CCOC(=O)c1c(-c2ccc(-c3ccccc3)cc2)csc1NC(=O)c1cccc(N2C(=O)CCC2=O)c1", "Potency": "inconclusive [activator, partial curve]"}, {"molecule": "COc1cc2cnncc2cc1OC", "Potency": "inconclusive [inhibitor, single point]"}, {"molecule": "O=C(COc1ccccc1C(=O)N/N=C\\c1ccc(O)c(O)c1)N/N=C/c1ccc(O)c(O)c1", "activity change, negative = inhibition": "inactive: -3.26% [at 12.8 µM]"}, {"molecule": "O=C(Nc1ccc(S(=O)(=O)NCc2cccnc2)cc1)c1ccccc1Cl", "Potency": "inconclusive [inhibitor, single point]"}, {"molecule": "CCOC(=O)c1cnc2ccc(Cl)cc2c1NCCN(C)C", "Potency": "inconclusive [inhibitor, single point]"}, {"molecule": "O=[N+]([O-])c1ccc(-c2ccc(/C=N/O)o2)cc1", "Potency": "inactive"}, {"molecule": "Cc1nc(N2CCC(C)CC2)c2c(C)c(C(=O)Nc3ccccc3C(F)(F)F)sc2n1", "Potency": "inconclusive [activator, partial curve]"}, {"molecule": "CCC[C@H](NC(=O)[C@H](CC(C)C)N(C)C(=O)CNC(=O)[C@@H](NC(=O)[C@H](Cc1ccccc1)NC(=O)[C@H](CCCCN)NC(=O)[C@@H](N)CC(=O)O)C(C)C)C(N)=O", "Potency": "inactive"}, {"molecule": "COc1ccc(CNc2nc(-c3c(C)noc3C)nc3ccccc23)c(OC)c1", "Potency": "inconclusive [activator, partial curve]"}, {"molecule": "O=[N+]([O-])c1ccc(Sc2ncccn2)c([N+](=O)[O-])c1", "Potency": "inactive"}, {"molecule": "O=C(NC(=S)Nc1cccc2c(O)cccc12)c1ccccc1[N+](=O)[O-]", "Potency": "inactive"}, {"molecule": "COC(=O)c1c(NC(=O)CSc2nc3ccccc3c(=O)n2-c2ccccc2)sc(C)c1C", "Potency": "inconclusive [activator, partial curve]"}, {"molecule": "COc1ccc(CN2C(=O)c3cccc4cccc2c34)cc1F", "Potency": "inconclusive [activator, single point]"}, {"molecule": "Cc1cccc(-c2noc(-c3ccccc3C(=O)NCC3CCCO3)n2)c1", "note": "(centres undefined)", "activity change, negative = inhibition": "inconclusive: 34.3% [activator]"}, {"molecule": "CC(C)CCNC(=O)c1cc2c(=O)n3ccccc3nc2s1", "Potency": "inconclusive [activator, partial curve]"}, {"molecule": "COC(=O)c1[nH]c2ccc(C)cc2c1NC(=O)CN1CCC(C)CC1", "Potency": "inactive"}, {"molecule": "O=C(Cc1ccccc1)Nc1ccc(NC(=O)Cc2ccccc2)c(Cl)c1", "Potency": "inactive"}, {"molecule": "CC(C)[C@H](NS(=O)(=O)c1ccccc1)C(=O)OCC(=O)Nc1ccccc1Sc1ccccc1", "Potency": "inconclusive [activator, partial curve]"}, {"molecule": "C/C(CCN1CCc2nc(-c3ccccc3)c(-c3ccccc3)cc2C1)=N\\O[C@@H](C)CN1CCCCc2nc(C)c(C)cc21", "activity change, negative = inhibition": "inactive: -6.45% [at 12.8 µM]"}, {"molecule": "Oc1ccccc1/C=N/NC(=S)NC1CC2CCC1C2", "note": "(centres undefined)", "Potency": "inconclusive [activator, partial curve, poor fit]"}, {"molecule": "Cc1cccc(CNc2cc(-c3ccccc3C)ncn2)c1", "Potency": "inconclusive [inhibitor, single point]"}, {"molecule": "Cc1cc(C)n2ncc(C(=O)Nc3ccc(Cl)c(Cl)c3)c2n1", "Potency": "inconclusive [activator, full curve]"}, {"molecule": "CCCN(CC(=O)Nc1ccccc1OC)C(C)C(=O)NC(C)CCc1ccccc1", "note": "(centres undefined)", "Potency": "inconclusive [activator, single point]"}, {"molecule": "N#CC(c1ccc(Cl)cc1)c1nc2ccccc2nc1C(F)(F)F", "note": "(centres undefined)", "activity change, negative = inhibition": "inconclusive: 30.6% [activator]"}, {"molecule": "O=C(N/N=C\\c1ccc2c(c1)OCO2)c1ccco1", "Potency": "inactive"}, {"molecule": "CC(C)c1cc(=O)oc2c3c4c(cc12)CCCN4CCC3", "Potency": "inconclusive [activator, single point]"}, {"molecule": "O=C(Nc1nccs1)c1ccc(NC(=O)c2ccco2)cc1", "Potency": "inactive"}, {"molecule": "S=C(NCc1ccc(Cl)cc1Cl)NC1CCCCC1", "Potency": "inconclusive [activator, single point]"}, {"molecule": "CCCCC[n+]1ccn(-c2nc3ccccc3nc2[N-]S(=O)(=O)c2ccccc2)c1", "Potency": "inconclusive [activator, partial curve]"}, {"molecule": "COc1ccccc1OCC(=O)NCC1CCCCC1", "Potency": "inconclusive [activator, single point]"}, {"molecule": "O=C(CSc1nc2ccccc2c(=O)n1CCCN1CCOCC1)NC12CC3CC(CC(C3)C1)C2", "Potency": "inconclusive [inhibitor, single point]"}, {"molecule": "Cc1ccc(C)c(Cn2c3ccccc3c3cnn(CC(=O)NCCN4CCOCC4)c(=O)c32)c1", "Potency": "inconclusive [inhibitor, partial curve]"}]}]}
